In PubChem BioAssay AID493208 (National Center for Advancing Translational Sciences (NCATS), 2011):
Hit rate of the full screen: of about 44,000 compounds, about 340 (0.77%) were called active. Inconclusive results (about 5%) are left out. The call rests on the fitted dose curve; in most records, active means well fitted inhibition curve with a large enough effect; inconclusive means small, poorly fitted or top-dose-only effect; inactive means flat fitted curve, though single readings scatter. Some of the results follow.

Test: Acumen qHTS Assay for Inhibitors of the mTORC1 Signaling Pathway in MEF (Tsc2-/-, p53-/-) Cells: Sytravon;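 further: plate controls were DMSO for no effect and rapamycin for full effect; nearly all actives have a fitted effect of over 50% in size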
Settings: phospho-rpS6 immunofluorescence/PI, 24 h; series mostly up to 38.3 µM; activity change, negative = inhibition: at the top concentration
Method in brief: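 Read-out: phospho-S6 Alexa-488 intensity over PI intensity per well, scored as % active cells using thresholds from rapamycin (7.5 nM) and DMSO controls. Tsc2-/-, p53-/- MEFs exposed to compound for 24 h; PI cell count recorded as viability.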

Activity change, negative = inhibition, inactive:
CCOC(=O)C1CCCN(c2ncnc3c2nnn3C)C1 (stereo not drawn) 0.0183%
COc1cccc(NC(=O)c2oc3ccccc3c2NC(=O)c2cc3ccccc3o2)c1 -2.22%
Cc1nc2ccn(Cc3cccnc3)c(=O)c2cc1C(=O)Nc1ccc(F)cc1F -12.1%
COCCCNC(=O)c1ccc(C)c(-n2c(C)nc3cccnc32)c1 -1.43%
COCCn1c(SCC(=O)c2c[nH]c3ccccc23)nc2cc(C(=O)NC(C)C)ccc2c1=O 9.05%
O=S(=O)(Nc1ccc(F)cc1F)c1ccc(-n2cccn2)cc1 -0.0369%
CCOc1ccc(-c2nnc(SCC(=O)c3ccc(Br)cc3)n2-c2ccccc2)cc1 -12.6%
O=C(CN1C(=O)CCc2cc(S(=O)(=O)N3CCOCC3)ccc21)NCc1ccc(Cl)cc1 -4.76%
CCOc1ccc(CCNC(=O)c2cc3c(s2)-c2c(C)cccc2OC3)cc1 0.502%
Cc1ccc(NC(=O)CSc2nnc(-c3ccc(Br)cc3)o2)c(C)c1 1.98%
Cc1ccc(OCC(=O)Nc2ccc3nc(SCCOc4ccccc4)sc3c2)cc1 0.11%
CCOC(=O)Cn1c(=O)oc2cc(S(=O)(=O)N3CCC(C(=O)OCC)CC3)ccc21 -1.74%
COc1ccc(NC(=O)Cn2nnc3sc4c(c3c2=O)CCCC4)cc1 -6.99%
Cc1ccc(NC(=O)CN2C(=O)COc3ccc(S(=O)(=O)Nc4ccccc4)cc32)c(C)c1 1%
COc1ccc(CNC(=O)c2ccc3nc(C(C)C)oc3c2)cc1OC 0%
Cc1cc(C)c(NC(=O)CSc2nc3ccncc3[nH]2)c(C)c1 -5.37%
Cc1ccc(C2=NC(c3ccccc3)=Nc3ccc(Cl)cc3N2)cc1 0.485%
COC(=O)c1cc2oc3ccccc3c2n1Cc1c(C)cc(C)cc1C -8.79%
CCc1ccc(NC(=O)CCc2nnc3n(C)c(=O)c4sccc4n23)cc1 6.42%
COCCCNC(=O)CSc1nc(-c2ccc(OC)c(OC)c2)[nH]c1-c1ccc(F)cc1 -8%
Cc1cc(C)c2c(=O)cc(C(=O)NCc3ccc(S(N)(=O)=O)cc3)oc2c1 7.1%
Cc1cc(C)cc(NC(=O)Cn2c(=O)n(Cc3ccco3)c(=O)c3oc4ccccc4c32)c1 -10.9%
COc1cc2ccccc2cc1C(=O)Nc1cccc(-c2nc3cc(C)ccc3o2)c1C 9.15%
Cc1nn2c(=O)cc(COC(=O)COc3ccc(F)cc3)nc2s1 2.57%
Cc1cccc(NC(=O)C2CCCN(S(=O)(=O)c3ccc(Br)s3)C2)c1 (stereo not drawn) 1.76%
Cc1nc2cccnc2n1-c1cccc(C(=O)NCCc2ccc(S(N)(=O)=O)cc2)c1 0.838%
COc1ccc(NC(=O)CSc2nnc3scc(-c4ccc(Cl)cc4)n23)cc1 -2.75%
CCOC(=O)c1c(C)c(-c2ccccc2)n(CC(=O)Nc2cccc(F)c2)c1C 1.26%
